Experimental data: PubChem BioAssay AID686979 (National Center for Advancing Translational Sciences (NCATS), 2013)
In all, about 420,000 compounds went through this assay and about 50,000 (12%) were called active. This list was built around the results that the source calls inconclusive (neither active nor inactive); the mix of calls is not that of the screen. Calls come from the whole dose curve; as a rule, active = well fitted inhibition curve with a large enough effect; inconclusive = small, poorly fitted or top-dose-only effect; inactive = flat fitted curve, though single readings scatter. Potencies of inconclusive entries are left out as doubtful fits.

Assay: qHTS for Inhibitors of human tyrosyl-DNA phosphodiesterase 1 (TDP1): qHTS in cells in presence of CPT; note: nearly all actives have a fitted effect of over 55% in size
Conditions: chicken DT40 Tdp1-/-;hTDP1 cells + 20 nM CPT, ATP luminescence, 48 h; series mostly up to 46.2 µM
Procedure, shortened: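 Chicken DT40 Tdp1-/- cells complemented with human TDP1, 400 cells/well, exposed to compounds plus 20 nM camptothecin for at least 48 h at 37 C; viability read as ATP content by CellTiter-Glo luminescence.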
Potency is the fitted concentration of half-maximal effect; tags give direction and shape of the fitted curve.

SMILES | Potency
COc1ccc(NC(=O)C2(S(=O)(=O)c3ccc(C)cc3)CC2)cc1OC | inactive
CCN(CC)S(=O)(=O)c1ccc2oc(SCC3CN=C(c4ccc(OC)cc4)S3)nc2c1 (configuration not stated) | inconclusive [inhibitor, single point]
NS(=O)(=O)c1ccc(CCNCc2ccccc2OCc2ccc(F)cc2)cc1 | inconclusive [inhibitor, single point]
Cn1cc(-c2nc3cnc(N4CCNCC4)nc3n(CCC#N)c2=O)c2ccccc21 | inconclusive [inhibitor, single point]
COc1cccc(NC(=O)c2cccc(S(=O)(=O)N3CCN(Cc4ccccc4)CC3)c2)c1 | inconclusive [inhibitor, single point]
CCOC(=O)[C@]12CCC=C1N(Cc1ccco1)C(=O)[C@H](CC(=O)NCC13CC4CC(CC(C4)C1)C3)C2 | inconclusive [inhibitor, single point]
O=C(CCc1ccc(S(=O)(=O)N2CCOCC2)cc1)Nc1ccc(F)c(F)c1F | inconclusive [inhibitor, single point]
NC(=O)/C=C\C(=O)Nc1cccc(C(F)(F)F)c1 | active: 5.17 µM
CCS(=O)(=O)NCCc1csc2nc(-c3ccc(C)cc3)nn12 | active: 16.4 µM
Cc1cc(C)c(-n2[nH]nnc2=S)c(C)c1 | inconclusive [inhibitor, single point]
COC(=O)[C@]1(Cc2ccccc2)N[C@H](c2ccc(SC3CCCCC3)c(OC)c2)[C@@H]2C(=O)N(C)C(=O)[C@@H]21 | inconclusive [inhibitor, single point]
COc1ccc(/C=C2\Sc3ccc(C(=O)NCCN4CCCCCC4)cc3N(C)C2=O)cc1 | inconclusive [inhibitor, single point]
CNc1nc(-c2ccc(OC)cc2)c(-c2ccc(OC)cc2)s1 | inactive
COc1ccc2nc(C)cc(SCC(=O)NNC(=O)COc3cccc4ccccc34)c2c1 | inactive
CN1CCN(S(=O)(=O)c2cccc(C(=O)O)c2)CC1 | inactive
O=C(O)CSc1nnc(COc2cccc3cccnc23)n1-c1cccc(C(F)(F)F)c1 | inactive
CCOC(=O)c1cc(C#N)c(SC(C(=O)N2CCCCC2)c2ccccc2)nc1C (configuration not stated) | inconclusive [inhibitor, partial curve, poor fit]
CC(C)(C)n1nnnc1C(c1cccs1)N1CCN(C/C=C/c2ccccc2)CC1 (configuration not stated) | inconclusive [inhibitor, single point]
COc1ccc(-c2cc(C(=O)NC3CCCCC3)no2)cc1OC | inactive
CCc1nnc(NC(=O)CSc2nnc(-c3ccccc3O)n2-c2ccc(C)cc2)s1 | inconclusive [inhibitor, single point]
Cc1ccc(-n2cnc3cc(C(=O)NC4CCCCCC4)ccc32)cc1Cl | inconclusive [inhibitor, single point]
Nc1ccc2c(c1)nnn2-c1ccccc1 | inactive
Cc1cccc(-n2c(-c3ccco3)nc3c(cnn3-c3ccc(F)cc3)c2=O)c1 | active: 16.4 µM
Clc1cccc(Nc2c3c(nc4ncnn24)CCC3)c1 | inconclusive [inhibitor, single point]

SMILES | Potency
COc1ccc(CCn2c(=N)c(C(=O)NCc3ccco3)cc3c(=O)n4cccc(C)c4nc32)cc1 | active: 20.6 µM
N#CCCn1cc(CNCc2cccnc2)c(-c2ccccc2)n1 | inconclusive [inhibitor, single point]
O=C(NCc1ccccc1)NC1CC2CCC(C1)N2Cc1ccco1 (configuration not stated) | inactive
Cc1ccc(C2C(C#N)=C(N)Oc3n[nH]c(-c4ccccc4)c32)o1 (configuration not stated) | active: 13 µM
CC1CCN(C(=O)CSc2nc(N)c(NC(=O)c3ccccc3)c(=O)[nH]2)CC1 | inactive
COC(=O)c1c(C)sc(-c2c(-c3ccc4c(c3)OCCO4)[nH]c3c2c(=O)[nH]c(=O)n3C)c1O | inconclusive [inhibitor, single point]
O=[N+]([O-])c1ccc(Cc2ccccn2)cc1 | inactive
CCOc1ccccc1-n1c(SCC(=O)NC(C)CC)nnc1-c1ccoc1C (configuration not stated) | inconclusive [inhibitor, single point]
CNc1snc(C)c1C(=O)OCC(=O)c1ccc(Cl)cc1 | active: 13 µM
CCC(C)C1C(C#N)=C(N)Oc2n[nH]c(-c3ccccc3)c21 (configuration not stated) | inconclusive [inhibitor, single point]
Cc1ccc(NC(=O)C(c2ccc(Cl)cc2Cl)N2CCCC2)cc1 (configuration not stated) | active: 23.1 µM
COc1ccc(C(=O)NCC(=O)OCc2ccc(F)cc2)cc1 | inactive
COc1ccc(-c2nn(C)c3sc(C(=O)N4CCN(c5cccc(Cl)c5)CC4)cc23)cc1OC | active: 14.6 µM
Cc1cc(C)nc(NC(=O)Cc2cccs2)n1 | inactive
CCOc1c(OC(C)=O)ccc(/C=C/c2ccc3cccc(OC(C)=O)c3n2)c1[N+](=O)[O-] | inconclusive [inhibitor, single point]
Cn1c(SCC(=O)NCc2cccs2)nnc1-c1ccc(O)cc1 | inactive
CCN(Cc1ccncc1)C(=O)CC1C(=O)NCCN1Cc1ccc(F)c(F)c1 (configuration not stated) | inconclusive [inhibitor, single point]
CCN(C)c1cc2c(c3c1ccn3C)C1CCC2C1 (configuration not stated) | inconclusive [inhibitor, single point]
O=C(O)c1cccc2c1Cc1cc([N+](=O)[O-])ccc1-2 | inactive
Cc1ccc(CN(C)C(=O)c2ccc3c(c2)NC(=O)CS3)o1 | inconclusive [inhibitor, single point]
CCOC(=O)N1CCN(C(=O)c2ccc3c(c2)N(Cc2ccccc2)CCS3)CC1 | inconclusive [inhibitor, single point]
CCNc1nc(NC(C)(C)C)nc(N2CCCCC2)n1 | active: 20.6 µM
COc1cccc(C(=O)NC(=S)Nc2ccccc2N2CCCCC2)c1 | inconclusive [inhibitor, single point]
